The other results are listed elsewhere or left out.
What follows are sequences tested on PfAP2-HC AP2 domain (GST-tagged) (assay: gcPBM binding intensity (ln(normalized median fluorescence intensity)); higher = stronger DNA binding).
Summary of the method: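 Plasmodium falciparum DNA-binding domains carrying a GST tag were expressed in E. coli and applied for 1 h, at about 25 μg on average, to an Agilent 4 × 180k array. The array held primer-extended double-stranded 36-bp intergenic genomic probes together with negative controls, and binding took place in 1× PBS with 1% milk, 0.2 mg/ml BSA, 0.5% salmon testes DNA and 0.03% Triton X-100. An Alexa488 anti-GST antibody detected bound protein, and the array was scanned at 488 nm. Binding intensity is taken as the highest Masliner-normalised natural-log median intensity across replicate spots of either probe orientation.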
“TATAAAAAAATAAAAGGAATATACTTGCAAAGGGTA [CACACA_negctrl_site1438]” was tested, and the “gcPBM binding intensity (ln)” value was 9.83.
For “ATGTAAGTAATTATCTGTACACATAATATATATATA [XGTACX_site2618]”, the “gcPBM binding intensity (ln)” value was 9.82.
“AATATAAAAAATAATACACACACATGGCGACAAAAT [CACACA_site8765]” was tested, and the “gcPBM binding intensity (ln)” value was 10.3.
“TACATATTACTATTCAGTACATATTTTTTTTTCATT [XGTACX_site7468]” was tested, and the “gcPBM binding intensity (ln)” value was 9.81.
“TATATAGGTATATATACACACAACGGTTATAAATAT [CACACA_site4759]” was tested, and the “gcPBM binding intensity (ln)” value was 9.94.
In the case of “TATAAAGACACGAAAACACACATATGTAAATATATA [CACACA_site8056]”, the “gcPBM binding intensity (ln)” value is reported as 10.
For AGGATAAAAGTTATGGTGCATTAACCTATTTAAATA, the “gcPBM binding intensity (ln)” value was 9.51.
For “TAGTTTTGAAAACAAACACACAAAAAAAAAAAAAAA [CACACA_site1692]”, the “gcPBM binding intensity (ln)” value was 9.34.
For “CACATAAATAATTAAACACACATTGTTCTAGACAAT [CACACA_site2378]”, the “gcPBM binding intensity (ln)” value was 9.82.
For “TTTGAGTTACTATTCACACAAAATGGATAAATTAAT [CACACA_site5626]”, the “gcPBM binding intensity (ln)” value was 9.56.
“TCCTCATTTTATCATACACACTTGTTTATATGTGTG [CACACA_site6548]” was tested, and the “gcPBM binding intensity (ln)” value was 9.88.
“TATATATATATAATTTGTACACACAAATATGCATAT [XGTACX_site7297]” was tested, and the “gcPBM binding intensity (ln)” value was 9.85.
In the case of “ATATATAATAATTGTAGTACAATTAATAAATAAAAT [XGTACX_site3840]”, the “gcPBM binding intensity (ln)” value is reported as 9.89.
“AATATTTATAAATTTACACACACACCCGTGAACATA [CACACA_site1910]” was tested, and the “gcPBM binding intensity (ln)” value was 10.2.
“TTATCATTTTAAATCACACACATATATAAATATGTA [CACACA_site7359]” was tested, and the “gcPBM binding intensity (ln)” value was 9.73.
In the case of “ATACGATTGCAGTCAAAAAGGAAAATATAAAAAAAG [XGTACX_negctrl_site124]”, the “gcPBM binding intensity (ln)” value is reported as 9.5.
With “TGGGGTATTAAAAAAACACACAAAAAAAATATAAAG [CACACA_site1915]” the “gcPBM binding intensity (ln)” value was 9.57.
In the case of “AAAATGTATATTGGCGCATGTAAACAAATACTATAC [TGCATGCA_site385]”, the “gcPBM binding intensity (ln)” value is reported as 9.96.
With “GATAATAATAAGTGTACACATATATTTAGAAGAGTA [CACACA_site4245]” the “gcPBM binding intensity (ln)” value was 9.96.
In the case of “ATATATATGTATGTATATATATATATATATGTTTGA [CACACA_negctrl_site107]”, the “gcPBM binding intensity (ln)” value is reported as 9.86.
“TTAATAACGTAATGTAAATGTTTCATACCCTTTTTT [CACACA_negctrl_site988]” was tested, and the “gcPBM binding intensity (ln)” value was 9.58.
In the case of “TTTTTTTTTCTGTATACACACAAAATTTATTTTTTA [CACACA_site2873]”, the “gcPBM binding intensity (ln)” value is reported as 9.83.
For “ATAAAATAAAAACATGCACACTTTATTTTTTTTAAG [CACACA_site5545]”, the “gcPBM binding intensity (ln)” value was 9.59.
In the case of “AAAGAAGGGGGGGGAAAAAAAAATAAAAGAGGAAAA [XGTACX_negctrl_site92]”, the “gcPBM binding intensity (ln)” value is reported as 9.37.
With “AAATTTAGTAAAAAATGTACGTAAAATGTAAAATAT [XGTACX_site1314]” the “gcPBM binding intensity (ln)” value was 9.86.
With “ATACTAACATTTTTTTGTACATATAACTATAAAATA [XGTACX_site1033]” the “gcPBM binding intensity (ln)” value was 9.36.
For “AAGGTAAACGGACACACACACATACAAAAAAAAAAA [CACACA_site5961]”, the “gcPBM binding intensity (ln)” value was 11.3.
“TGATATTATAGATATACACACATGTATGTATTTATA [CACACA_site6758]” was tested, and the “gcPBM binding intensity (ln)” value was 9.78.
“AGACCTATGATATATACACACATATAAATAAATATA [CACACA_site6725]” was tested, and the “gcPBM binding intensity (ln)” value was 9.77.
In the case of “TTATTAAATATAAATATGTATCTTTTATGTTATATT [CACACA_negctrl_site306]”, the “gcPBM binding intensity (ln)” value is reported as 9.57.
In the case of “TAAATCCGCAGGCACACACACATATTAATAAAAAAA [CACACA_site3991]”, the “gcPBM binding intensity (ln)” value is reported as 10.8.
“AAAAAAAAAAGACACACACACATAGACCTCCAATAG [CACACA_site7646]” was tested, and the “gcPBM binding intensity (ln)” value was 10.5.
“TATTTTACGACATACCAAAAAAAAAAAAAAAAAATA [CACACA_negctrl_site1254]” was tested, and the “gcPBM binding intensity (ln)” value was 9.43.
For “AATGTTAAACTATGATGTACGGTTAAAAATATAATT [XGTACX_site893]”, the “gcPBM binding intensity (ln)” value was 9.58.
In the case of “TATATATTATATAAATAAATAAATATATATATTTAT [TGCATGCA_negctrl_site270]”, the “gcPBM binding intensity (ln)” value is reported as 9.15.
In the case of “AATGATTTTGATTAACGTACGTACAAATATATATAT [XGTACX_site6604]”, the “gcPBM binding intensity (ln)” value is reported as 9.6.
In the case of “AAAAAAGAAATAAGGATACACACTATTGATAAAAGT [CACACA_site272]”, the “gcPBM binding intensity (ln)” value is reported as 9.94.
With “CCAGTGTGCACCTTGCGTACATATTAAATTAATTAA [XGTACX_site3729]” the “gcPBM binding intensity (ln)” value was 9.49.
In the case of TTTTTTAAATTTAAAGTGCATTATTATATATTTGTA, the “gcPBM binding intensity (ln)” value is reported as 9.49.
For “AAAAAAAAAATATATATATATATATATATATATATA [GTGCAC_negctrl_site467]”, the “gcPBM binding intensity (ln)” value was 9.77.
For CAAAAAAAAAAACGGGTGCTAAATTTTATTTTTTAT, the “gcPBM binding intensity (ln)” value was 9.52.
“ATAAAGCACACCGACACACACATATATATATATATA [CACACA_site1047]” was tested, and the “gcPBM binding intensity (ln)” value was 10.5.
“TATCATGGTTCGGATTGTACATATATGAATTTTTTT [XGTACX_site7478]” was tested, and the “gcPBM binding intensity (ln)” value was 9.67.
“GGATAAGAAAAGAAGTGTACATATATATATATATAT [XGTACX_site8290]” was tested, and the “gcPBM binding intensity (ln)” value was 9.81.
For “TTCTTTTAAAAATATATTTTAAGAAAATTTAATTTA [GTGCAC_negctrl_site237]”, the “gcPBM binding intensity (ln)” value was 9.13.
For “TTTATTTTTTGAAACACACACAAAAAAAATGATACA [CACACA_site1881]”, the “gcPBM binding intensity (ln)” value was 9.9.
In the case of “TAAAATGAATAAAATTGTACTTAATAATATTTTAAA [XGTACX_site5532]”, the “gcPBM binding intensity (ln)” value is reported as 9.38.
For “AATATATGTTAAAATGGTACACAATTATTATATATT [XGTACX_site6407]”, the “gcPBM binding intensity (ln)” value was 9.71.
For “AAAAAAAAAAAAAAGAGTACTTTTTTCACATTCATC [XGTACX_site8795]”, the “gcPBM binding intensity (ln)” value was 9.51.
“AAAAAAAAAAAAATTACACACATACCTATAAGAATA [CACACA_site7097]” was tested, and the “gcPBM binding intensity (ln)” value was 9.94.
With “TTTTCTTTTTTCTTTTTAACTCTTACATAATAGGTG [CACACA_negctrl_site642]” the “gcPBM binding intensity (ln)” value was 9.34.
For “GGATATATAAGATACACACACAAATTAAATATAAAA [CACACA_site7333]”, the “gcPBM binding intensity (ln)” value was 10.2.
With “TAATATATAAATATATGTACATAATTAATAGGATAT [XGTACX_site237]” the “gcPBM binding intensity (ln)” value was 9.8.
In the case of “TATTCCTAATTTAAAAGTACATATATATATATATAT [XGTACX_site3008]”, the “gcPBM binding intensity (ln)” value is reported as 9.6.
For “TAAATCAAAAACAACAAGTCATATTAAAGATGGTAT [CACACA_negctrl_site1321]”, the “gcPBM binding intensity (ln)” value was 9.77.
In the case of CTTATAATATTACGGGTGCTATAAATACATTATATT, the “gcPBM binding intensity (ln)” value is reported as 9.72.
For “TTGTTTCAAAATTAAACACACACAAAAAAAAAAAAA [CACACA_site8856]”, the “gcPBM binding intensity (ln)” value was 9.88.
For “TATATTTATATCATCACACATTTTTTTTTTCTTTTT [CACACA_site6150]”, the “gcPBM binding intensity (ln)” value was 9.59.
For “AAGGAAAACAGTAGGTGTACCAAACGTCCTAGGAAC [XGTACX_site3659]”, the “gcPBM binding intensity (ln)” value was 9.78.
